According to the supplement of paper PMC11125491:
± gives the standard deviation of the averaged measurements. Growth of baker's yeast expressing single-residue variants of Pneumocystis jirovecii dihydrofolate reductase in 8.8 or 44 µM methotrexate (about 75% and 90% inhibition of the wild type). Selection coefficient per generation; 0 = like wild type, above 0 = less sensitive, below 0 = more sensitive or loss of function. No active / inactive call per row; the paper calls resistant above 0.220 (8.8 µM) or 0.243 (44 µM) together with a significance test. At 44 µM about 15% of codons end with one read or none, so the lowest values are floors (replicate rank correlation 0.74; 0.94 at 8.8 µM).

B1: UniProt A0EPZ9; numbered along this chain (parent)
chain: MDWQKSLTLIVALTLSRGIGLKNDLPWKLKSDMMFFSRVTSGLLVTRSTGQMNVVLMGRKTWESLPAHSRPLKNRINVVISRQEVLDLGGGAYHARSLDDALALLSQIYDSTSKIQLNRVFVIGGGELCKAAMEHSRLNRIIATVIHNEVDCDVFFPIDFRSSQSCLPWRKQDHSVLEAWVGSKVPQGKINENGFIYEFEMWIRDI

Variants of: B1
Assay: selection coefficient against synonymous wild-type codons (log2 per generation); higher = faster growth than wild type
Conditions: with Saccharomyces cerevisiae carrying the variant on a plasmid
Procedure: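 Pooled growth of yeast carrying single-residue variants of P. jirovecii dihydrofolate reductase (own DFR1 gene intact), two passages at 30 °C, three cultures, sequenced before and after. Codons with under 15 starting reads are left out; codons of one change are averaged.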

Variant	selection coefficient against synonymous wild-type codons (log2) (methotrexate 8.8 µM)	selection coefficient against synonymous wild-type codons (log2) (methotrexate 44 µM)
L167A	0.0172 ± 0.057	-0.0879 ± 0.14
L167K	-0.024 ± 0.041	-0.117 ± 0.12
L167Y	-0.0995 ± 0.11	-0.203 ± 0.072
L167F	-0.0935 ± 0.096	-0.159 ± 0.078
L167I	0.103 ± 0.12	-0.0353 ± 0.14
L167D	-0.0418 ± 0.041	-0.00945 ± 0.05
L167N	0.0291 ± 0.044	-0.068 ± 0.073
L167G	-0.0316 ± 0.037	-0.0797 ± 0.089
L167M	-0.0256 ± 0.072	-0.0588 ± 0.053
L167C	-0.112 ± 0.12	-0.113 ± 0.19
L167R	-0.0278 ± 0.027	-0.0856 ± 0.15
L167V	0.0459 ± 0.05	0.0374 ± 0.047
L167P	0.0197 ± 0.053	-0.126 ± 0.099
L167Q	-0.000736 ± 0.013	-0.115 ± 0.18
L167W	-0.195 ± 0.059	-0.216 ± 0.0099
L167S	0.0207 ± 0.048	0.0194 ± 0.11
L167T	-0.00224 ± 0.047	-0.138 ± 0.14
L167H	-0.0785 ± 0.12	-0.164 ± 0.068
L167E	0.0214 ± 0.0092	0.0198 ± 0.094
Q164W	-0.167 ± 0.049	-0.284 ± 0.065
Q164R	-0.0808 ± 0.066	-0.151 ± 0.061
Q164Y	-0.122 ± 0.097	-0.12 ± 0.049
Q164P	0.0111 ± 0.061	-0.101 ± 0.16
Q164M	-0.0446 ± 0.02	-0.134 ± 0.071
Q164V	-0.0558 ± 0.033	-0.0748 ± 0.074
Q164S	-0.106 ± 0.11	-0.0827 ± 0.081
Q164T	-0.063 ± 0.018	-0.0871 ± 0.13
Q164N	-0.0239 ± 0.086	-0.18 ± 0.13
